Hit rate of the full screen: of about 310,000 compounds, about 14,000 (4.5%) showed an effect of 50% or more. The effect is printed as a negative number. Some of the results follow.
molecular target: human ether-à-go-go-related gene (hERG) potassium channel (human, UniProt Q12809); test: primary screen, population patch clamp on CHO cells stably expressing hERG
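Also: peak tail current of the secondary pulse compared with the same well before compound.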

human ether-à-go-go-related gene (hERG) potassium channel, sequence (Q12809 whole entry, looked up): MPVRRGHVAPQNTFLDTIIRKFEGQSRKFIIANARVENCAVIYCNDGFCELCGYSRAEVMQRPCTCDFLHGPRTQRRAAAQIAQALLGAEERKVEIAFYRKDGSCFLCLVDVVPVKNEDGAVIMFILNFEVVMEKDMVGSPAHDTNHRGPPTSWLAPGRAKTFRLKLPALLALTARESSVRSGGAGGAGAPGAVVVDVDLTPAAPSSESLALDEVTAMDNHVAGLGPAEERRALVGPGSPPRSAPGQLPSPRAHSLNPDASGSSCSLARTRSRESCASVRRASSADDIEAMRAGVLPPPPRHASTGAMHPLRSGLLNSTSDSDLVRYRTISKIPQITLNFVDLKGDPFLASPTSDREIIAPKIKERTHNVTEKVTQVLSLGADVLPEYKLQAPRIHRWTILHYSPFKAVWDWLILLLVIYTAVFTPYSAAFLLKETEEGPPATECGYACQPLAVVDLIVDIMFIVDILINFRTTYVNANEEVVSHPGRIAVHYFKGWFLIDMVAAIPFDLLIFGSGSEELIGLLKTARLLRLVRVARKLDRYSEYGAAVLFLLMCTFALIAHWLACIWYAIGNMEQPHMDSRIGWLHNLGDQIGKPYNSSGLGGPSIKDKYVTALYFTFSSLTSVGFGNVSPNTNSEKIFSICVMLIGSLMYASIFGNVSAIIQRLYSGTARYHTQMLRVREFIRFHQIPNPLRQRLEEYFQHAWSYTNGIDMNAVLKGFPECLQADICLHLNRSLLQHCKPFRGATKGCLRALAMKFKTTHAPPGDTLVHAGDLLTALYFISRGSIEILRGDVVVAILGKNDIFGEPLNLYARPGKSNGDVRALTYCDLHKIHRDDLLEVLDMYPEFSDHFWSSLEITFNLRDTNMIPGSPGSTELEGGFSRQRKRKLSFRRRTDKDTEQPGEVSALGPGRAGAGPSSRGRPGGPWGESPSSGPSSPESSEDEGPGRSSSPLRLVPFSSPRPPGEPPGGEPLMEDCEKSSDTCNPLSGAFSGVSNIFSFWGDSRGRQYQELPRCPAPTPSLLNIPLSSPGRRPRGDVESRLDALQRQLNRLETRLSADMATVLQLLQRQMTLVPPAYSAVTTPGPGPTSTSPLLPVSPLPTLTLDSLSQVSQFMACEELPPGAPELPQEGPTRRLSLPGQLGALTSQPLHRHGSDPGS

Row | Structure (SMILES) | hERG current change (%, negative = inhibition) at 10uM [%]
1 | CC(=O)c1ccccn1 | 18.5
2 | CCc1ccccc1NC(=O)CSC1=C(C#N)C(c2ccc(O)c(OC)c2)C2=C(CCCC2=O)N1 (centres unmarked) | 15.8
3 | CC(NC(=O)c1ccccc1Cl)c1ccc(-n2ccnc2)cc1 (centres unmarked) | -34.2
4 | COc1ccccc1OCC(=O)NCCSCc1ccc(Cl)cc1 | -45
5 | CCOC(=O)CN1C(=O)N(c2ccccc2OC)S(=O)(=O)c2ccccc21 | 14.4
6 | Cc1ccc(S(=O)(=O)Nc2nc(-c3ccccc3)cs2)cc1 | 9.38
7 | CCOC(=O)N1CCN(S(=O)(=O)c2ccc(C(=O)N(CCN(CC)CC)c3nc4ccc(C)cc4s3)cc2)CC1.Cl | -23.8
8 | O=C(CN(Cc1ccco1)C(=O)c1cc(=O)[nH]c2ccccc12)Nc1ccccc1C(F)(F)F | -12
9 | CC(Oc1ccccc1)C(=O)Nc1nnc(S(=O)(=O)Nc2ccccc2)s1 (centres unmarked) | 11.4
10 | Cc1ccc(S(=O)(=O)N2CCN=C2SC(C)c2ccccc2)cc1 (centres unmarked) | 10.7
11 | CC1CC(C)CN(CC(=O)Nc2ccc3c(c2)OCCO3)C1.O=C(O)C(=O)O (centres unmarked) | 2.75
12 | O=C(CCC(=O)N1CCOc2ccccc21)NCc1cccnc1 | 12.2
13 | CC1Cc2ccccc2N1S(=O)(=O)c1cccc(C(=O)NCCCO)c1 (centres unmarked) | -27.9
14 | Cc1ccc(N(CC2=NCCN2)c2cccc(O)c2)cc1.Cl | -58.3
15 | COc1cc2nc(NCC3CCCO3)n3nc(-c4cccnc4)nc3c2cc1OC (centres unmarked) | -22.6
16 | Cl.OCCN(CCO)Cc1csc2ccccc12 | 1.95
17 | Cc1noc(C)c1S(=O)(=O)N(CC(=O)N1CCCC1)c1ccc(C(C)C)cc1 | -20.9
18 | O=C(C1COc2ccccc2O1)N1CCN(c2ccccc2Cl)CC1 (centres unmarked) | 1.69
19 | CCOc1ccc(C(=O)c2cc([N+](=O)[O-])ccc2N2CCOCC2)cc1 | -20.4
20 | O=C(COC(=O)c1cc(=O)[nH]c2ccccc12)Nc1nccs1 | 16.2
21 | CC(=O)c1cccc(NC(=O)CN2CCN(Cc3ccccc3)CC2)c1.Cl | -10.9
22 | CC(C)C(=O)N(c1ccc2oc(=O)sc2c1)S(=O)(=O)c1ccccc1 | 30.6

Row | Structure (SMILES) | hERG current change (%, negative = inhibition) at 10uM [%]
23 | O=C(NC1CCS(=O)(=O)C1)c1ccc(S(=O)(=O)N2CCCCC2)cc1 (centres unmarked) | 1.86
24 | COc1ccc(NC(=O)c2cnn(-c3ccccc3)c2C)cc1OC | 7.69
25 | CC(=O)CC(C)(C)NC(C)=S | -4.75
26 | COC(=O)c1ccc(C(=O)NC2CCSc3ccccc32)cc1 (centres unmarked) | 14.9
27 | Cc1ccc(CSc2nnc3c(n2)OC2(Nc4ccccc4-3)C(=O)Nc3ccc(F)cc32)cc1 (centres unmarked) | 6.53
28 | CC(=O)c1ccc(NC(=O)CCNC(=O)c2ccc(Cl)cc2)cc1 | 11.5
29 | COc1ccc(C(=S)N2CCOCC2)cc1OC(=O)c1ccc([N+](=O)[O-])cc1[N+](=O)[O-] | -52
30 | CCC1CCCCN1CCCNC(=O)CN1C(=O)CSc2ccc(S(=O)(=O)N3CCC(C)CC3)cc21 (centres unmarked) | -9.76
31 | CC(=O)N/C(=N\c1nc(C)cc(C)n1)Nc1ccc2ccccc2c1 | 10.8
32 | O=C(CN1CCCc2ccccc21)Nc1ccc(F)cc1[N+](=O)[O-] | 19.2
33 | O=[N+]([O-])/C(C(=C(Cl)Cl)N1CCN(Cc2ccccc2)CC1)=C1\NCCN1Cc1ccc(Cl)nc1 | -12.8
34 | O=C1CC(c2ccco2)Cc2nc(Nc3ccc(F)cc3)ncc21 (centres unmarked) | -31
35 | CCOc1cc(C(=O)NC(C)COC)cc(OCC)c1OCC (centres unmarked) | -7.82
36 | O=c1onc(-c2cccnc2)n1-c1ccccc1F | 10.8
37 | COc1ccc(S(=O)(=O)NCC(c2ccc(C)cc2)N2CCN(C)CC2)cc1OC (centres unmarked) | -25.6
38 | CCOc1cc(CNC(=O)CN2C(=O)c3ccccc3S2(=O)=O)ccc1OC | -7.58
39 | COc1ccc(C(=O)Nc2cccc(C(C)=O)c2)c(OC)c1OC | 6.8
40 | C/C(=N\NC(=O)CC1N=C(Cc2ccccc2)NNC1=O)c1ccc(Br)cc1 (centres unmarked) | 15.1
41 | CN1CCN(C(=O)c2ccc(OCCOc3ccccc3)cc2)CC1 | -9.69
42 | C/C(=N\NC(=O)C1COc2ccccc2O1)c1ccc(C)o1 (centres unmarked) | -0.028
43 | Cc1cccc(C)c1OCC(=O)N/N=C/C=C/c1ccco1 | 11.7
44 | CC(C)NCC(=O)Nc1c2c(nc3ccccc13)CCC2.O=C(O)C(=O)O | 6.26

Row | Structure (SMILES) | hERG current change (%, negative = inhibition) at 10uM [%]
45 | Cc1onc(-c2c(F)cccc2Cl)c1C(=O)N1CCc2ccccc2C1 | -15.7
46 | O=C(c1ccco1)N(Cc1cccc([N+](=O)[O-])c1)c1ccc(Br)cc1 | -26.9
47 | O=C(c1ccccc1)c1ccc(Cn2cc(-c3ccccc3)nn2)cc1 | -15.1
48 | C/C(=N\NC(=O)Cc1ccc(Cl)cc1)c1ccc(F)cc1 | 10.6
49 | COc1ccc(S(=O)(=O)N2CC(C(=O)O)Oc3ccc(CC(=O)O)cc32)cc1 (centres unmarked) | 18.2
50 | CC(C)COc1ccc(Cc2cnc(N)nc2N)cc1 | -14.4
51 | CC(=O)Nc1ccc(S(=O)(=O)c2ccc(C)cc2)cc1 | 10.3
52 | Cc1no[n+]([O-])c1COc1cccc(/C=C2\N=C(c3ccccc3)OC2=O)c1 | 21.6
53 | CC(O)CNc1nc2sc3c(c2c(=O)n1Cc1ccco1)CCCCC3 (centres unmarked) | 4.61
54 | CC1CCN(CCOc2cccc(Br)c2)CC1.O=C(O)C(=O)O | -20.3
55 | CCN1CCN(C(=O)NC2CC(=O)N(c3ccc(OC)cc3)C2)CC1 (centres unmarked) | 6.8
56 | CCOc1cc(N2CCOCC2)c(OCC)cc1NC(=O)c1cccc(N(C)C)c1 | -22.1
57 | COC(=O)N1C(=O)[C@@](c2ccccc2)(C2CCCCC2)N1C(=O)OC | 6.94
58 | O=C(CN1C(=O)NC2(CCOc3ccccc32)C1=O)Nc1cccc(Cl)c1 (centres unmarked) | 26.5
59 | CC(C)CNC(=O)NC(=O)COC(=O)c1ccccc1Sc1ccc(C(F)(F)F)cc1[N+](=O)[O-] | 11.1
60 | CCCn1ncc(CN2CCC(C(=O)Nc3cccc(-c4cccc(F)c4)c3)CC2)c1C | -71.7
61 | CCc1ccc(NC(=O)Cn2nnc(C(=O)NCc3cccs3)c2N)cc1 | 7.14
62 | C=CCNC(=O)c1ccc2c(c1)nnn2C | 4.52
63 | COc1ccc(N2CC(C(=O)Nc3nc4ccc(F)cc4s3)CC2=O)c(OC)c1 (centres unmarked) | -56.3
64 | O=C(CCNc1ccc(Cl)c(C(F)(F)F)c1)c1ccco1 | -23.7
65 | CN(CC(=O)Nc1c(Cl)cccc1Cl)C(=O)CNC(=O)c1ccc2c(c1)OCO2 | 6.07
66 | Cc1ccc(NC(=O)CN(C)C(=O)C2CC(=O)N(Cc3ccccc3)C2)cc1 (centres unmarked) | -8.54

Row | Structure (SMILES) | hERG current change (%, negative = inhibition) at 10uM [%]
67 | COc1cc(CNc2ccc(NC(C)=O)cc2)ccc1OCc1ccccc1C | -5.23
68 | Cc1ccc(C(=O)N/N=C/C=C/c2ccccc2)cc1 | -3.39
69 | COc1cc(C(=O)NC(=S)Nc2ccc3c(c2)OCO3)cc(OC)c1OC | 12.1
70 | CCOc1ccc(C(C(=O)NC(C)(C)C)N(CCOC)C(=O)CCC(=O)Nc2ccccn2)cc1 (centres unmarked) | -5.95
71 | COc1ccc(NC(=O)CCCCCN2C(=O)c3ccccc3C2=O)c(OC)c1 | -4.85
72 | COc1cccc(N2C(=O)NC(=O)C3(Cc4cc(C)ccc4N(C)C3)C2=O)c1 (centres unmarked) | 20
73 | Cc1cc(C)n(C(=O)CCC(=O)Nc2ccc(C)c(C)c2)n1 | 4.7
74 | CC(C)c1ccc(N(CC(=O)NN=C2CCN(C)CC2)S(=O)(=O)c2ccccc2)cc1 | -6.39
75 | CCn1c(=O)cc(SCC(=O)Nc2ccc(Cl)cc2)c2ccccc21 | 2.96
76 | CCc1ccc(NC(=O)CSc2nc(O)cc(=O)n2C2CCCC2)cc1 | 18.2
77 | CC(C#N)Sc1nc2ccccc2c(=O)n1-c1ccccc1 (centres unmarked) | 4.25
78 | Cc1ccc2nc(C(F)(F)F)c(C#N)c(N)c2c1 | -0.558
79 | COCCn1c(=O)[nH]c2cc(C(=O)NCCc3ccc(S(N)(=O)=O)cc3)ccc2c1=O | 23.7
80 | COc1ccccc1Nc1nc(N)nc(CN2CCCCCC2)n1 | -57.7
81 | COc1ccc(CNC(=O)c2cc3ccccc3oc2=O)cc1 | 18.6
82 | O=c1c2ccccc2cnn1Cc1nnc(-c2cccs2)o1 | 14.2
83 | CCCCNCCOCCSc1ccc(Cl)cc1.O=C(O)C(=O)O | -43.5
84 | Brc1ccccc1-c1nnc(COc2cccc3cccnc23)o1 | 4.19
85 | CCn1c(SCc2nc(-c3ccc(Cl)cc3)no2)nnc1-c1ccco1 | -62
86 | COc1cc(/C=N/Nc2ccc(S(N)(=O)=O)cc2)cc(OC)c1OC | 14.6

Source: paper PMC4336329 (PLoS ONE, 2015)
